Results as given in PubChem BioAssay AID1768 (National Center for Advancing Translational Sciences (NCATS), 2009).
About 620 (0.23%) of roughly 270,000 compounds were called active. The shares of active, inactive and inconclusive entries below differ from those in the screen. Calls come from the whole dose curve; as a rule, active = well fitted inhibition curve with a large enough effect in the polarisation, with a control signal flat (not every such curve was filed as active); inconclusive = small, poorly fitted or top-dose-only effect, or effect the other way, or a change in a side signal; inactive = no such curve, though single readings can be large or run the other way; the % refers to the polarisation. A potency beside an inconclusive call is a rough fit, not a confirmed value. “Side channel” marks fits to a control or component signal instead of the main read-out.

The compounds below were run against Menin (Homo sapiens) (UniProt O00255) (assay: qHTS Assay for Inhibitors Targeting the Menin-MLL Interaction in MLL Related Leukemias: Competition With Texas Red Labeled MLL-derived Mutant Peptide). Details: fluorescence polarization; FP activity change, negative = inhibition: at 61.6 µM (top of the series).
Sequence of UniProt O00255 (O00255 whole entry, looked up): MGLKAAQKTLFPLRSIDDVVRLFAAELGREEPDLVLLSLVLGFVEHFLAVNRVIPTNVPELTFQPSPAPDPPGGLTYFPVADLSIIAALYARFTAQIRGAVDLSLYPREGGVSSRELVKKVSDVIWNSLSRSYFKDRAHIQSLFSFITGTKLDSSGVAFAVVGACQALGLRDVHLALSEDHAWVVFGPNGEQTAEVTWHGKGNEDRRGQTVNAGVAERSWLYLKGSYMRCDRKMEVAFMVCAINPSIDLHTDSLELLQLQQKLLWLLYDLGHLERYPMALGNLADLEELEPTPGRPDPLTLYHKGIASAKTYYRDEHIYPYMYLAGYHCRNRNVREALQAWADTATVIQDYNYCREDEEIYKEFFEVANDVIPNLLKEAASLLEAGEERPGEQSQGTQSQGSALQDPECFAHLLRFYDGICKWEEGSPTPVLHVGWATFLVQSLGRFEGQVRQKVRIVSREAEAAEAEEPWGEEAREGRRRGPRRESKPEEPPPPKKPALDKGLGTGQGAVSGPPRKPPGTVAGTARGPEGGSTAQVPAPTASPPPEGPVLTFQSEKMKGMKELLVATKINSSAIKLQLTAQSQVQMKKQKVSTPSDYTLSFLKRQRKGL
Potency is the fitted concentration of half-maximal effect; tags give direction and shape of the fitted curve or compound fluorescence and quenching.
Throughout, for FP activity change, negative = inhibition: % of control where 0% means no effect.

SMILES | Potency | FP activity change, negative = inhibition
Cc1ccc(Cl)cc1Nc1nc(-c2sc(NC(=O)c3ccccc3)nc2C)cs1 | inconclusive: 2.82 µM [quencher, side channel, full curve] | –
Cc1cc(=O)n2[nH]c(-c3ccc(F)cc3)cc2n1 | inactive | –
O=C(Nc1cccc(Cl)c1Cl)c1ccc(-c2ccccc2)cc1 | inconclusive: 39.8 µM [inhibitor, single point] | –
C[C@H]1COC(=O)[C@H]2CCCN2C(=O)[C@@H](C)COC(=O)[C@H]2CCCN2C1=O | – | inactive: 0.856% [at 11.7 µM]
Cc1cccc(CC(=O)NCCn2c(C)cc3ccccc32)c1 | inconclusive: 35.5 µM [fluorescent, side channel, single point] | –
O=C(O)Cc1sc(Nc2ccc(F)cc2)nc1-c1cccs1 | inconclusive: 15.8 µM [quencher, side channel, partial curve] | –
CCOC(=O)N1CCC(N(CCOC)C(=O)Nc2ccc(CC)cc2)CC1 | inactive | –
O=C(Nc1ccc(Nc2ccccc2)cc1)c1ccc(F)cc1 | inconclusive: 28.2 µM [quencher, side channel, partial curve] | –
CCCCC/C=C\C[C@@H](O)/C=C/C=C\CCC(=O)O | inactive | –
Fc1ccc(Nc2ccc(-c3ccc(F)cc3)nn2)cc1 | inconclusive: 22.4 µM [inhibitor, single point] | –
CC1CCN(CC(O)COc2ccc(OCC(O)CN3CCC(C)CC3)cc2)CC1 (configuration not stated) | inconclusive: 5.01 µM [inhibitor, full curve, poor fit] | –
CCC(C)Sc1nc2c(c(=O)[nH]c(=O)n2C)n1CC(O)COc1ccccc1C (configuration not stated) | inconclusive: 10 µM [fluorescent, side channel, partial curve] | –
CCCCC(O)(c1ccccc1)C(CN1CCOCC1)c1ccccc1 (configuration not stated) | inconclusive: 11.2 µM [fluorescent, side channel, partial curve] | –
c1ccc2c(N3CCCCC3)nc(N3CCCCC3)nc2c1 | inactive | –
O=C(O)Cc1sc(-c2ccc(Cl)cc2)nc1-c1ccccc1 | inactive | –
CCNC(=S)Nc1scc(-c2ccccc2)c1C(=O)OCC | inconclusive: 28.2 µM [quencher, side channel, partial curve] | –
CCOc1cc(/C=C2\C(=O)NN(c3ccccc3)C2=O)cc([N+](=O)[O-])c1O | inconclusive: 25.1 µM [quencher, side channel, partial curve] | –
CC(=O)O[C@@]12CO[C@@H]1C[C@H](O)[C@@]1(C)C(=O)[C@H](O)C3=C(C)[C@@H](OC(=O)[C@H](O)[C@@H](NC(=O)OC(C)(C)C)c4ccccc4)C[C@](O)([C@@H](OC(=O)c4ccccc4)[C@H]21)C3(C)C | inconclusive: 7.94 µM [fluorescent, side channel, partial curve, poor fit] | –
COc1ccccc1C(NC(=O)C1CCCCC1)c1c(O)ccc2ccccc12 (configuration not stated) | inconclusive: 39.8 µM [inhibitor, single point] | –

SMILES | Potency | FP activity change, negative = inhibition
O=C(N=Nc1c(O)[nH]c2ccc(Cl)cc12)c1cc(-c2cccs2)nc2ccccc12 | inconclusive: 3.55 µM [quencher, side channel, full curve] | –
Cc1noc(/C=C/c2ccco2)c1S(=O)(=O)N1CCC(C(=O)Nc2ccc(Cl)cn2)CC1 | inconclusive: 7.08 µM [quencher, side channel, full curve] | –
CCCCn1c(N)c(-c2nc3ccccc3s2)c2c([N+](=O)[O-])nn(C)c(=O)c21 | inconclusive: 3.55 µM [quencher, side channel, full curve] | –
O=c1cc(-c2c(O)c3ccccc3n(Cc3ccccc3)c2=O)[nH][nH]1 | inconclusive: 39.8 µM [quencher, side channel, single point] | –
O=S(=O)(c1ccc(NC(=S)NCCC(c2ccccc2)c2ccccc2)cc1)N1CCOCC1 | inconclusive: 3.55 µM [quencher, side channel, full curve, poor fit] | –
COc1cc(CN2CCCC(N3CCc4ccccc4C3)C2)c(Cl)cc1O (configuration not stated) | inconclusive: 39.8 µM [inhibitor, single point] | –
COc1ccc(NC(=O)c2ccccc2Oc2ccccc2)cc1 | inconclusive: 8.91 µM [fluorescent, side channel, full curve] | –
CCc1ccc2[nH]c(=O)c(CN(CCCN3CCOCC3)C(=O)Nc3ccccc3)cc2c1 | inconclusive: 22.4 µM [fluorescent, side channel, single point] | –
Nc1nc(Cl)nc2c1ncn2[C@@H]1O[C@H](CO)[C@H](O)[C@H]1O | inactive | –
CCCC(=O)NC(c1ccc(OC)cc1)c1c(O)ccc2ccccc12 (configuration not stated) | inactive | –
CNC(=S)N(CCc1c(C)[nH]c2ccc(F)cc12)Cc1ccco1 | inconclusive: 11.2 µM [quencher, side channel, partial curve] | –
CCCC[P+](CCCC)(CCCC)Cc1ccc(NC(=O)[C@@H](Cc2ccc3ccccc3c2)NC(=NC2CCCCC2)NC2CCCCC2)cc1 | inconclusive: 3.16 µM [inhibitor, full curve, poor fit] | –
Cc1ccccc1Nc1nnc(SCC(=O)c2ccc(O)cc2O)s1 | inconclusive: 7.94 µM [quencher, side channel, single point] | –
CCCCNC(=S)NCC(c1ccccc1)c1c[nH]c2ccccc12 (configuration not stated) | inconclusive: 14.1 µM [quencher, side channel, partial curve] | –
CCOC(=O)c1c(NC(=O)C(NCCN(C)C)c2ccccc2)sc2c1CCCC2 (configuration not stated) | inconclusive: 17.8 µM [inhibitor, partial curve] | –
Cc1cnc(C(=O)Nc2ccc(OC(F)(F)F)cc2)cn1 | inconclusive: 39.8 µM [fluorescent, single point] | –
CCN1/C(=C/c2sc(-c3ccccc3C)c[n+]2C)Sc2ccccc21 | active: 25.1 µM | –
COc1cccc(N=c2oc3c(C)ncc(CO)c3cc2C(=O)Nc2ccccc2OC)c1 | inconclusive: 0.708 µM [inhibitor, partial curve, poor fit] | –
